# The supplement of paper PMC11417369
# This is one part of the list.
# Test system: PfSIP2 AP2 domain 1 (GST-tagged)
# Experiment: gcPBM binding intensity (ln(normalized median fluorescence intensity)); higher = stronger DNA binding
# Summary of the method: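 Alexa488 anti-GST antibody, scanned at 488 nm, detected GST-tagged P. falciparum DNA-binding domains that had been expressed in E. coli and incubated for 1 h on an Agilent 4 × 180k array. The array carried primer-extended double-stranded 36-bp intergenic genomic probes and negative controls. Binding intensity is the highest Masliner-normalised natural-log median intensity across replicate spots of either orientation of each probe.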
row,Sequence,gcPBM binding intensity (ln)
1,ATAAGATGATGGAACTGTAATATATATATATATATA [CACACA_negctrl_site839],9.32
2,TTTAAGAGTTGCACACGTACAAAAAAAAAAAAAAAA [XGTACX_site7406],7.99
3,TTGTATACATAAAATGGTACAGAATATATAATTCTA [XGTACX_site7236],6.79
4,GTATACCAACATATTATACACACCTTTATATTTTTT [CACACA_site2153],7.12
5,ATTACATGTTACTTAACACACATCTGGTGAAATAAT [CACACA_site171],7.05
6,TTAATTAAAATTTATACATGCATAAAAGAAATACAC [TGCATGCA_site537],7.88
7,ATTTTTTTCTTTTCTTTTTTCTTTTTTTTTTTTGGT [CACACA_negctrl_site1146],6.69
8,GTAATGAAACATTGCACACATATAATAATATAATAT [CACACA_site1422],7.19
9,TTATACTGTTTCAGAAAAATAAAGAATGAAAGTATT [XGTACX_negctrl_site230],7.1
10,TTTTTATATTCCCCCAGTACATATATAATAGTAGTA [XGTACX_site7927],8.16
11,TGCAACAAAATAAACACACACACACCCCCACAAAAA [CACACA_site3388],8.26
12,AATAAAAAAATAAAATGTACATACAAATAAATAAAT [XGTACX_site5153],6.86
13,TATTTTAATGAAGCATTTAAGGGAAAAAAAAAAAAA [TGCATGCA_negctrl_site606],6.81
14,TTTTTATTTTTTTTATGTACACAAATGATATACATA [XGTACX_site5910],7.44
15,AGGATACACGGACACACACACATATAGATTTATATA [CACACA_site6552],7.15
16,TTTCTTTTTTTTTTTTTTTCTGGCTTTTTCTCTTTT [TGCATGCA_negctrl_site599],6.53
17,TATATTACTTAAAATACACACCATGGAAAAGTTTTA [CACACA_site5443],6.77
18,ATTATTTTTCTATGTGTGCACGTGTGGAATGTGTCT [GTGCAC_site9507],10.3
19,TTCTGAACAAAATTATATATTTATTTTTATTTTCAT [CACACA_negctrl_site422],6.91
20,CATTATGTCATAAATGCACACATATACATTGTTTTG [CACACA_site8118],7.26
21,AATAAATTATTTATTGCATGTAATATGAATATTTTT [TGCATGCA_site798],6.69
22,TAATGTATGAAATAAACACACAAGTAAGTACATAAA [CACACA_site2451],7.19
23,ATATATTTTATTCCTATATATATATATATATATATA [GTGCAC_negctrl_site556],9.69
24,TCTGTAGTTTTTTACAGTACTTTTAGGTAATACATA [XGTACX_site7417],6.77
25,TTCTTGTATTTTCATAGTACATATAATGTCGTGTTA [XGTACX_site7714],7.1
26,AAAACACCCAAACACACACACACATATATATATATA [CACACA_site9119],9.55
27,AGAAAAAAAATATACACACATACGATCATACATATG [CACACA_site2171],6.86
28,TACATAGAGTTTGTTTGTACTCATATGCGTAAATTC [XGTACX_site4810],6.97

row,Sequence,gcPBM binding intensity (ln)
1,ACCTCTTTGAAATATACACACTAAACATATCAACTT [CACACA_site5372],7.47
2,AATATTATTATTATTACACACACAATTATATTTACC [CACACA_site8061],7.05
3,ATATTTTAAATGTTATGTACACATTTGTTGTTTACA [XGTACX_site7353],7.18
4,TTAATTTGTTCTTACACACACATATATATATATTTA [CACACA_site1185],7.27
5,ATTTTTTTTTTTATTTTCTTTGAGATTATCTTAATT [CACACA_negctrl_site1209],6.75
6,TATATATATACATAATGTACATTTTATAAATTTACA [XGTACX_site5283],8.01
7,ACTACCTATATTTAAGCATGCAAAAAATAAAAATAT [TGCATGCA_site238],7.47
8,ATAAATTGTTCTTTTTGTGTAAACAGAATATTAAAA [CACACA_negctrl_site1022],6.98
9,ATACAACATATATATACACACATATAATAATAATAA [CACACA_site3367],7.32
10,AAACCAATAAAAAACTGTACAAAAATTATATGAGAT [XGTACX_site1269],7.02
11,GAATAAAAAATATATGTGCACATATAAACTTAAAAT [GTGCAC_site9554],8.41
12,TAATATAAAGGAAAAGAAAAGAAAAGAATATACAAT [CACACA_negctrl_site1369],6.69
13,AAAAAAAAAAAAAAAATACACACGTGAATGTATTGT [CACACA_site1320],7.53
14,AAATAACACATATATACACACATATAAATATAATAT [CACACA_site2692],7.08
15,AAAAAACTTATAATCACACATATGATTAAATATTAA [CACACA_site4956],6.74
16,ATAGGACCTATGTGCCCATGGGTACATTAAAAAAAA [CACACA_negctrl_site1465],6.83
17,TTGAATGTAGTTAAATGTACATGTAATATATAAAAA [XGTACX_site1250],7.27
18,AATTATTTTTTGTATGAACACACAACTTAATTATGA [CACACA_site8774],6.95
19,TTTGTTTTAAATCGAAGTACACATAATTATATTTTA [XGTACX_site1541],7.2
20,TTTTTACGTAAACAAAATAATTATATAATATTATTT [CACACA_negctrl_site1769],6.86
21,CGTAAATTTTTTAAAAGTACAAAAAGATACGAGAAA [XGTACX_site8722],7.11
22,TAAACAAATAAATAAACACACAATATATGTATATAT [CACACA_site3803],6.87
23,ATATTTATATTTGTATGTACTTAAGTTTGTATGTAT [XGTACX_site3608],7.4
24,TTTTTAATTCAAAAAATAATATATTATATTTCAAAT [CACACA_negctrl_site737],6.77
25,ATATATTAGGGCAAATTTTCTGACATTACATCAGTC [CACACA_negctrl_site1166],6.92
26,TATTTTTCTTTTTTCTGTACTCACACAAATAGAAGG [XGTACX_site7329],7.51
27,TAAAAATGTAGACACACACACATATATATATTTAAT [CACACA_site1528],7.06
